Out of some 310,000 compounds screened, about 14,000 (4.5%) showed an effect of 50% or more. The effect is printed as a negative number. The list shows a part of the results.
These molecules were tested against human ether-à-go-go-related gene (hERG) potassium channel (human, UniProt Q12809) (assay: primary screen, population patch clamp on CHO cells stably expressing hERG).
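Further: peak tail current of the secondary pulse compared with the same well before compound.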

Chain of human ether-à-go-go-related gene (hERG) potassium channel (Q12809 whole entry, looked up): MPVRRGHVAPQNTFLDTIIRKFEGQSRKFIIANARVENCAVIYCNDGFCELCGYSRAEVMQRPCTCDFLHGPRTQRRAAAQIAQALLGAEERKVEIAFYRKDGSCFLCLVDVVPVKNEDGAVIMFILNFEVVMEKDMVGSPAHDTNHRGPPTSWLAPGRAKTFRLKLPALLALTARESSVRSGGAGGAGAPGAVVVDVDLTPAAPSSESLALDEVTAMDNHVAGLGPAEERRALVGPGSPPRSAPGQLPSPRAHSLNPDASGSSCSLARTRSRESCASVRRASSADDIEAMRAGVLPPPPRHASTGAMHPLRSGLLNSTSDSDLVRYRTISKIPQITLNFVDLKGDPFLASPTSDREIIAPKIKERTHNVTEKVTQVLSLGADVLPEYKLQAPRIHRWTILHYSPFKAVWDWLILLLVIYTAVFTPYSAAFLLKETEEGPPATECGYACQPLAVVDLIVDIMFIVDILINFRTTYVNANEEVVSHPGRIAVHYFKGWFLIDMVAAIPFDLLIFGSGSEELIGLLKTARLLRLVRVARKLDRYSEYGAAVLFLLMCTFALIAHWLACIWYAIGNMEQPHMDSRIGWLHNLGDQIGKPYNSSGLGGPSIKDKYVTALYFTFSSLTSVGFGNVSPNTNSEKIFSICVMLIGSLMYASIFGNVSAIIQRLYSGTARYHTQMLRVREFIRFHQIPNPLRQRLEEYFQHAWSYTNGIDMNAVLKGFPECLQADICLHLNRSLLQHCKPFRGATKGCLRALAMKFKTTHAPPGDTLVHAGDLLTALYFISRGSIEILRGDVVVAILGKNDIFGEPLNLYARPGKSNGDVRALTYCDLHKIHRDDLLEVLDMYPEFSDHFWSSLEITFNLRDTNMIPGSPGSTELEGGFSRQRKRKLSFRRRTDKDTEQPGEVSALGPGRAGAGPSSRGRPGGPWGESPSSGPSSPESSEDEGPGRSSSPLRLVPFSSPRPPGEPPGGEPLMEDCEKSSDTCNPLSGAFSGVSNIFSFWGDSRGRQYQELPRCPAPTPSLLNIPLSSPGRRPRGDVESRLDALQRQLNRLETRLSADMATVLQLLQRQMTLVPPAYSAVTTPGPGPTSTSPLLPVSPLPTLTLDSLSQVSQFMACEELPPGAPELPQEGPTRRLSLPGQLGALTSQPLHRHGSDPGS

Row | Compound | hERG current change (%, negative = inhibition) at 10uM [%]
1 | Cc1ccc(Sc2sc(=O)n(C)c2S(=O)(=O)c2ccc(C)cc2)cc1 | 5.44
2 | Cc1cc(=O)[nH]c(-c2ccccc2)n1 | 20
3 | C=CCn1c(C(C)NC(=O)c2cccc(C)c2)n[nH]c1=S (stereo not drawn) | 18.7
4 | O=C(CCCOc1ccccc1)Nc1ccc2c(c1)OCCO2 | 14
5 | Cc1oc(-c2cccc(Cl)c2)nc1CN1CCC(C(=O)N2CCN(c3ccccc3F)CC2)CC1 | -69.1
6 | COC(=O)c1cnc(Nc2ccc(Cl)cc2)c([N+](=O)[O-])c1 | 13.1
7 | C=CCn1c(O)c(C=Nc2ccc(N(CC)CC)cc2)c(=O)[nH]c1=O | -7.13
8 | Cc1ccc(NC(=O)COC(=O)c2ccc(S(=O)(=O)N3CCCCC3)cc2)cc1 | 8.88
9 | Cc1nn(-c2ccccc2)c(Cl)c1/C=C/C(=O)c1ccccc1 | -10.4
10 | CCCn1c(SCC(=O)c2cc(C)c(C)cc2C)n[nH]c1=O | 2.15
11 | Cc1ccc(CN(Cc2ccco2)S(=O)(=O)c2ccc(S(=O)(=O)NCC3CCCO3)cc2)cc1 (stereo not drawn) | 15.1
12 | Cc1cc(NS(=O)(=O)c2ccc(NC(=O)COc3ccccc3C(C)C)cc2)no1 | 18.7
13 | O=C(COc1cccc2ccccc12)N/N=C/c1ccco1 | -5.35
14 | COc1ccc(N2CC(C(=O)NCCCN3CCOCC3)CC2=O)cc1 (stereo not drawn) | -7.87
15 | Cc1onc(-c2ccccc2Cl)c1C(=O)N1CCN(C)CC1 | 20.2
16 | CCOC(=O)c1cc(-c2ccc(Cl)cc2)nc2c1c(C)nn2CCC#N | 9.9
17 | Cc1ccc(-c2cccc(OC(=O)c3ccccc3F)c2)cc1 | 5.02
18 | Cc1ccc(C)c(NS(=O)(=O)c2cc(Br)cnc2N)c1 | 9.19
19 | O=C(COC(=O)/C=C/c1ccccc1[N+](=O)[O-])Nc1ccc(OC(F)F)cc1 | -5.14
20 | CC(C)(C)C(=O)NNC(=O)c1cnccn1 | 3.29
21 | CCC1(C)OC(=O)NN(c2ccc(C)cc2)C1(C)O (stereo not drawn) | 3.34
22 | C=CCC12C=C(OC)C(=O)OC(OC)(C1O)[C@H](c1ccc3c(c1)OCO3)[C@H]2C (stereo partly drawn) | 12.8
23 | CC(C)CCNC(=O)C1CCC(CNc2c(N3CCCC3)c(=O)c2=O)CC1 (stereo not drawn) | 2.2

Row | Compound | hERG current change (%, negative = inhibition) at 10uM [%]
24 | Cc1ccc2[nH]c(=O)c(CN(CCc3ccccc3)C(=O)N3CCOCC3)cc2c1 | -13.6
25 | Cc1csc(SCC(=O)NC(=O)c2ccccc2)n1 | 4.09
26 | CCN1CCN(C(=O)N(c2ccccc2)c2ccccc2)CC1 | 11.9
27 | FC(F)(F)c1cnc(Nc2ccc(N3CCOCC3)cc2)c(Cl)c1 | -23.5
28 | CC1CC(C)CN(S(=O)(=O)N2CCCC(C(=O)NC3CCCCC3)C2)C1 (stereo not drawn) | 18.4
29 | Nn1c(SCC(=O)Nc2ccc(S(=O)(=O)N3CCCC3)cc2)nnc1C(F)(F)F | 15.6
30 | CCc1ccc(-c2nnn(CCC#N)n2)cc1 | 15.4
31 | O=C(Nc1cccc(-c2ccccc2)c1)N1CCN(C(=O)Nc2cccc(-c3ccccc3)c2)CC1 | 13.4
32 | COc1ccc(CNC(=O)C(Cc2ccccc2)n2cccc2)cc1 (stereo not drawn) | -9.11
33 | COC(=O)c1sccc1NC(=O)COc1cccc(C)c1 | 8.18
34 | CCC12CN3CC(CC)(CN(C1)C3c1ccc(OC(C)C)cc1)C2=O (stereo not drawn) | -8.41
35 | CCC(=O)NC(=S)Nc1cccc(NC(=O)CC)c1 | 12.1
36 | CC(=O)NC(=S)Nc1ccc(NC(=S)NC(=O)c2cccs2)cc1 | 14.7
37 | CC(C)[C@H](NC(=O)[C@@H]1Cc2ccccc2CN1C(=O)OC(C)(C)C)C(=O)NCC1CCCO1 (stereo partly drawn) | 5.38
38 | Cc1cc(N/C=C2\CCCCC2=O)no1 | 14.2
39 | CCCCCN(C(=O)COC(=O)Cc1c(C)nc2ccccc2c1C)c1c(N)n(CCCC)c(=O)[nH]c1=O | -11
40 | CCOC(=O)COc1ccccc1C(=O)c1cnn(-c2ccccc2)c1 | -11.9
41 | O=C(Nc1ccccc1)N1CCCC2CCCCC21 (stereo not drawn) | -32
42 | COc1cc(/C=N/Nc2ccc(C)cc2)cc(Br)c1O.Cl | 11.6
43 | O=C(OCC(=O)N1CCCc2ccccc21)c1ccccc1[N+](=O)[O-] | -12.3
44 | CC(=O)Nc1cc[n+](CC(=O)c2cccc([N+](=O)[O-])c2)cc1.[Cl-] | -5.08
45 | CC(=O)/C(=N\Nc1ccccc1Cl)Sc1cccc2cccnc12 | -2.72
